2 compounds from PubChem BioAssay (NCI) can be followed below.

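All cell lines were grown in 96-well plates and treated with compound for 48 hours. GI50 is the concentration that inhibits growth by half.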 Not every entry of the source has a single result; some have several. Only these are listed. There may be further records. Records of one sample usually come from different ranges of test concentrations, which the source does not state; some values may only mark the edge of a range.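 At the TGI there is no net growth.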 *1 amine or outer side, *2 acyl side, *3 side chain or, on linkers, in order; H or OH if unused. Where a SMILES comes first, the peptide text is derived from it. Bridges are numbered along the chain shown (N, C = ends). Roman numbers before positions name the chains, in order. [ ]: non-standard residue; d: D form. Actinocin(9to1) = Cc1c2oc3c(C)ccc(C(=O)[*:1])c3nc-2c(C(=O)[*:2])c(N)c1=O; aThr = C[C@H](O)[C@H](N)C(=O)O; NMeV = CN[C@H](C(=O)O)C(C)C; Sar = CNCC(=O)O

The assay has as its system MDA-MB-468 breast. The assay can be described thus: growth of human tumour cells (NCI), 48 h.

As to `O=C(Nc1cccc(-n2ccc3c(NC(=O)c4ccccc4)nccc32)c1)c1ccc(Cl)c(C(F)(F)F)c1`, the GI50 was 16.3 µM [1 test] and 91.4 nM [mean of 2 tests]; the TGI is 50.8 µM [1 test] and 515 nM [mean of 2 tests]. Take `Cc1c2oc3c(C)ccc(C(=O)N[C@@H]4C(=O)N[C@H](C(C)C)C(=O)N5CCC[C@H]5C(=O)N(C)CC(=O)N(C)[C@@H](C(C)C)C(=O)O[C@H]4C)c3nc-2c(C(=O)N[C@@H]2C(=O)N[C@H](C(C)C)C(=O)N3CCC[C@H]3C(=O)N(C)CC(=O)N(C)[C@@H](C(C)C)C(=O)O[C@H]2C)c(N)c1=O` (I: [aThr][dV]P[Sar][NMeV] / II: [aThr][dV]P[Sar][NMeV]; ester I:1-I:C, II:1-II:C; linker I:N-II:N via Actinocin(9to1)): the GI50 was 6.8 nM [1 test] and 0.542 nM [mean of 4 tests].
